# In the supplement of paper PMC8728848:
# This is one part of the list.
# B1: Flo5 (Saccharomyces cerevisiae), P38894 (protein)
# chain: MGSSHHHHHHSSGLVPRGSHMSGATEACLPAGQRKSGMNINFYQYSLKDSSTYSNAAYMAYGYASKTKLGSVGGQTDISIDYNIPCVSSSGTFPCPQEDSYGNWGCKGMGACSNSQGIAYWSTDLFGFYTTPTNVTLEMTGYFLPPQTGSYTFSFATVDDSAILSVGGSIAFECCAQEQPPITSTNFTINGIKPWDGSLPDNITGTVYMYAGYYYPLKVVYSNAVSWGTLPISVELPDGTTVSDNFEGYVYSFDDDLSQSNCTIPDPSIH
# Experiments:
# Experiment in all cases: glycan array binding signal (z-score within array); higher = stronger binding
# Conditions in all cases: glycan notation: IUPAC condensed, linker removed
# [1] = molecular target: Gal(b1-4)GlcNAc(b1-3)[GlcNAc(b1-6)]Gal(b1-4)GlcNAc
# Outline: (§1)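 Columns mapping to the same glycan were averaged after glycan names were converted to IUPAC-condensed notation. The data come from 3228 arrays in the Consortium for Functional Glycomics database, limited to those with an available protein sequence. Binding is reported as a within-array Z-score averaged across arrays of one protein sequence and across linkers.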
# [2] = molecular target: Gal(b1-4)GlcNAc(b1-6)Gal(b1-4)GlcNAc
# Outline: as §1
# [3] = molecular target: Gal(b1-4)GlcNAc(b1-6)Gal(b1-4)GlcNAc(b1-6)GalNAc
# Outline: as §1
# [4] = molecular target: Gal(b1-4)GlcNAc(b1-6)GalNAc
# Outline: as §1
# [5] = molecular target: Gal(b1-4)GlcNAc(b1-6)[Gal(b1-3)]GalNAc
# Outline: as §1
# [6] = molecular target: Gal3S(b1-3)GalNAc
# Outline: as §1
# [7] = molecular target: Gal3S(b1-3)GlcNAc
# Outline: as §1
# [8] = molecular target: Gal3S(b1-3)[Fuc(a1-4)]GlcNAc
# Outline: as §1
# [9] = molecular target: Gal3S(b1-4)Glc
# Outline: as §1
# [10] = molecular target: Gal3S(b1-4)Glc6S
# Outline: as §1
# [11] = molecular target: Gal3S(b1-4)GlcNAc
# Outline: as §1
# [12] = molecular target: Gal3S(b1-4)GlcNAc6S
# Outline: as §1
# [13] = molecular target: Gal3S(b1-4)[Fuc(a1-3)]Glc
# Outline: as §1
# [14] = molecular target: Gal3S4S(b1-4)GlcNAc
# Outline: as §1
# [15] = molecular target: Gal3S6S(b1-4)GlcNAc
# Outline: as §1
# [16] = molecular target: Gal3S6S(b1-4)GlcNAc6S
# Outline: as §1
# [17] = molecular target: Gal4S(b1-4)GlcNAc
# Outline: as §1
# [18] = molecular target: Gal4S6S(b1-4)GlcNAc
# Outline: as §1
# [19] = molecular target: Gal6S(b1-4)Glc
# Outline: as §1
# [20] = molecular target: Gal6S(b1-4)Glc6S
# Outline: as §1
# [21] = molecular target: Gal6S(b1-4)GlcNAc
# Outline: as §1
# [22] = molecular target: Gal6S(b1-4)GlcNAc6S
# Outline: as §1
# [23] = molecular target: GalNAc(a1-3)Gal
# Outline: as §1
# [24] = molecular target: GalNAc(a1-3)GalNAc
# Outline: as §1
# [25] = molecular target: GalNAc(b1-3)Gal
# Outline: as §1
# [26] = molecular target: GalNAc(b1-3)Gal(a1-4)Gal(b1-4)GlcNAc
# Outline: as §1
# [27] = molecular target: GalNAc(b1-3)Gal(a1-4)Gal(b1-4)GlcNAc(b1-3)Gal(b1-4)Glc
# Outline: as §1
# [28] = molecular target: GalNAc(b1-3)GalNAc
# Outline: as §1
# [29] = molecular target: GalNAc(b1-4)GlcNAc
# Outline: as §1
# [30] = molecular target: GalNAc(b1-4)GlcNAc(b1-2)Man(a1-3)[GalNAc(b1-4)GlcNAc(b1-2)Man(a1-6)]Man(b1-4)GlcNAc(b1-4)GlcNAc
# Outline: as §1
# [31] = molecular target: Glc(a1-4)Glc
# Outline: as §1
# [32] = molecular target: Glc(a1-6)Glc(a1-6)Glc
# Outline: as §1
# [33] = molecular target: Glc(b1-4)Glc
# Outline: as §1
# [34] = molecular target: Glc(b1-6)Glc
# Outline: as §1
# [35] = molecular target: GlcA(b1-3)Gal
# Outline: as §1
# [36] = molecular target: GlcA(b1-3)GlcNAc
# Outline: as §1
# [37] = molecular target: GlcA(b1-6)Gal
# Outline: as §1
binder,measurement,setting,value
B1,glycan array binding signal (z-score),[1],-0.126
same,glycan array binding signal (z-score),[2],-0.233
same,glycan array binding signal (z-score),[3],-0.143
same,glycan array binding signal (z-score),[4],-0.219
same,glycan array binding signal (z-score),[5],-0.148
same,glycan array binding signal (z-score),[6],-0.17
same,glycan array binding signal (z-score),[7],0.037
same,glycan array binding signal (z-score),[8],-0.224
same,glycan array binding signal (z-score),[9],0.161
same,glycan array binding signal (z-score),[10],8.31
same,glycan array binding signal (z-score),[11],-0.098
same,glycan array binding signal (z-score),[12],0.044
same,glycan array binding signal (z-score),[13],-0.104
same,glycan array binding signal (z-score),[14],-0.198
same,glycan array binding signal (z-score),[15],-0.031
same,glycan array binding signal (z-score),[16],0.137
same,glycan array binding signal (z-score),[17],1.47
same,glycan array binding signal (z-score),[18],0.123
same,glycan array binding signal (z-score),[19],-0.082
same,glycan array binding signal (z-score),[20],0.022
same,glycan array binding signal (z-score),[21],-0.174
same,glycan array binding signal (z-score),[22],0.082
same,glycan array binding signal (z-score),[23],-0.054
same,glycan array binding signal (z-score),[24],-0.225
same,glycan array binding signal (z-score),[25],-0.083
same,glycan array binding signal (z-score),[26],-0.191
same,glycan array binding signal (z-score),[27],-0.103
same,glycan array binding signal (z-score),[28],-0.197
same,glycan array binding signal (z-score),[29],-0.253
same,glycan array binding signal (z-score),[30],-0.09
same,glycan array binding signal (z-score),[31],-0.173
same,glycan array binding signal (z-score),[32],-0.181
same,glycan array binding signal (z-score),[33],-0.144
same,glycan array binding signal (z-score),[34],-0.203
same,glycan array binding signal (z-score),[35],-0.123
same,glycan array binding signal (z-score),[36],-0.227
same,glycan array binding signal (z-score),[37],-0.095
